# About 340 (0.77%) of roughly 44,000 compounds were called active. Roughly 5% stayed inconclusive and do not appear here. Calls come from the whole dose curve; as a rule, active = well fitted inhibition curve with a large enough effect; inconclusive = small, poorly fitted or top-dose-only effect; inactive = flat fitted curve, though single readings scatter. Some of the results follow.
# Experiment: Acumen qHTS Assay for Inhibitors of the mTORC1 Signaling Pathway in MEF (Tsc2-/-, p53-/-) Cells: Sytravon; note: nearly all actives have a fitted effect of over 50% in size;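 for activity change, negative = inhibition: plate controls were DMSO for no effect and rapamycin for full effect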
# Settings: phospho-rpS6 immunofluorescence/PI, 24 h; series mostly up to 38.3 µM; activity change, negative = inhibition: at the top concentration
# In short: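 Read-out: phospho-S6 Alexa-488 intensity over PI intensity per well, scored as % active cells using thresholds from rapamycin (7.5 nM) and DMSO controls. Tsc2-/-, p53-/- MEFs exposed to compound for 24 h; PI cell count recorded as viability.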
# Potency is the fitted concentration of half-maximal effect.
SMILES,"activity change, negative = inhibition",Potency
Cc1ccc(-n2c(/C=C\c3ccc(F)c(F)c3)nc3ccccc3c2=O)c(C)c1,inactive: 6%,
Cc1ccccc1-c1nn2c(=O)cc(CN3CCN(C(=O)COc4ccccc4Cl)CC3)nc2s1,inactive: 0%,
Cc1cccc(OCC(=O)N2CCN(Cc3cc(=O)n4nc(-c5ccccc5Cl)sc4n3)CC2)c1,inactive: 0%,
CC(=O)c1cccc(NC(=O)c2cccn(Cc3cccc(C)c3)c2=O)c1,inactive: -0.59%,
N#Cc1cc2c(nc1SCC(=O)Nc1cccc(C(F)(F)F)c1)C1CCN2CC1,inactive: -10.9%,
COc1ccc(C(c2c(O)c3ccccc3oc2=O)c2c(C)n(C)n(-c3ccccc3)c2=O)cc1 (centres undefined),inactive: 3.39%,
CCSc1nnc(NC(=O)c2cccn(Cc3ccccc3Cl)c2=O)s1,inactive: 0.739%,
CCOc1ccccc1NC(=O)c1cccn(Cc2ccccc2C)c1=O,inactive: -1.07%,
Cc1ccc(NC(=O)CN2C(=O)CN=C(c3ccccc3)c3ccccc32)cc1Cl,inactive: -3.79%,
CCc1ccc(-n2nc(C)c3c2NC(=O)CSC3c2ccccc2C)cc1 (centres undefined),inactive: -0.671%,
Cc1ccc(OCC(=O)Nc2ccc(Cl)cc2C(=O)c2ccccc2)c(Br)c1,inactive: 1.91%,
COc1ccc(NC(=O)CN2C(=O)C(C)N=C(c3ccccc3)c3ccccc32)cc1OC (centres undefined),inactive: -4.18%,
Cc1ccc(Cn2cccc(C(=O)Nc3nc4ccc(C)cc4s3)c2=O)cc1,inactive: -6.15%,
O=C(Nc1ccc2c(c1)OCO2)c1cccn(Cc2ccccc2)c1=O,inactive: 0.388%,
O=C(Nc1ccon1)c1cccn(Cc2cccc([N+](=O)[O-])c2)c1=O,inactive: -6.12%,
Nc1c(C(=O)Nc2ccc(F)c(Cl)c2)sc2nc3c(cc12)N1CCC3CC1,inactive: -17%,
CCOc1ccc2nc(NC(=O)c3cccn(Cc4ccc(C)cc4)c3=O)sc2c1,inactive: -4.76%,
O=C(Nc1ccc(F)c(Cl)c1)N(Cc1ccc2c(c1)OCO2)C1CCN(Cc2ccccc2)CC1,inactive: -19.6%,
Cc1cccc(Cn2cccc(C(=O)Nc3nnc(C)s3)c2=O)c1,inactive: 0.966%,
O=C1CC(c2ccc(C(F)(F)F)cc2)c2c(c3ccccc3oc2=O)O1 (centres undefined),inactive: -21.7%,
Cc1ccc(-c2nc(CN3C(=O)CN=C(c4ccccc4Cl)c4cc(Cl)ccc43)c(C)o2)cc1,inactive: 0.411%,
O=C(Nc1ccc2c(c1)OCCO2)c1cccn(Cc2ccccc2)c1=O,inactive: 0.933%,
COC(=O)c1ccccc1NC(=O)c1cccn(Cc2cccc(Cl)c2)c1=O,inactive: -6.21%,
COc1ccc(NC(=O)CCc2nc(C3=CCN(Cc4cccc(Cl)c4)CC3)no2)cc1OC,inactive: 0%,
N#Cc1cccc(NC(=O)c2sc3nc4c(cc3c2N)N2CCC4CC2)c1,inactive: 2.47%,

SMILES,"activity change, negative = inhibition",Potency
COc1ccc(CCNCc2ccc3c(c2)n(C)c(=O)n3C)cc1,inactive: 0.991%,
O=C1CC(c2ccc(F)cc2)c2c(c3ccccc3oc2=O)O1 (centres undefined),inactive: -4.27%,
N#Cc1cc2c(nc1SCC(=O)Nc1ccc(F)c(Cl)c1)C1CCN2CC1,inactive: -0.0249%,
CCCC12CN3CC(C)(CN(C1)C3c1ccccn1)C2=O (centres undefined),inactive: 4.25%,
O=c1c2ccccc2nc(/C=C/c2ccccc2O)n1-c1ccc(Br)cc1,inactive: -21%,
Cc1ccc(-n2nc(C)c3c2NC(=O)CSC3c2ccc(O)cc2)cc1Cl (centres undefined),inactive: -2.41%,
Cc1ccccc1-n1c(/C=C/c2ccc(O)cc2)nc2ccccc2c1=O,inactive: -29.3%,
CC(C)(C)c1ccc(OCC(=O)Nc2ccc(Cl)cc2C(=O)c2ccccc2)cc1,inactive: -7.31%,
CCOc1ccccc1CN(CCc1ccc2c(c1)OCO2)Cc1ccc(CC)cc1,inactive: 0.16%,
CSc1ncc(C(=O)Nc2ccc(Cl)cc2C(=O)c2ccccc2)c(C)n1,inactive: 4.89%,
N#Cc1cccc(NC(=O)CSc2nc3c(cc2C#N)N2CCC3CC2)c1,inactive: -6.87%,
Cc1nnc(NC(=O)c2cccn(Cc3cccc([N+](=O)[O-])c3)c2=O)s1,inactive: -0.835%,
Cc1ccc(NC(=O)N(Cc2ccc3c(c2)OCO3)C2CCN(Cc3ccccc3)CC2)cc1Cl,inactive: 0%,
CCOC(=O)c1ccc(NC(=O)c2cccn(Cc3ccc(C)cc3)c2=O)cc1,inactive: -0.357%,
CCN(CC)C(=O)c1ccc(NC(=O)Cn2nc(-c3ccc(C)cc3)c3ccccc3c2=O)cc1,inactive: 7.14%,
Cc1ccc(Cn2cccc(C(=O)Nc3nnc(C)s3)c2=O)cc1,inactive: -9.48%,
Cc1ccc(-n2c(/C=C/c3cccs3)nc3ccccc3c2=O)cc1C,inactive: 7.71%,
COc1ccc(C)cc1NC(=O)c1cccn(Cc2cccc([N+](=O)[O-])c2)c1=O,inactive: 2.85%,
CCCC12CN3CC(CCC)(CN(C1)C3c1ccccn1)C2=O (centres undefined),inactive: 3.14%,
COc1cccc(/C=C/c2nc3ccccc3c(=O)n2-c2ccc(Cl)cc2)c1OC,inactive: 3.15%,
O=C(Nc1ccc2c(c1)OCCO2)c1cccn(Cc2cccc(F)c2)c1=O,inactive: -0.0434%,
CCc1ccccc1NC(=O)c1cccn(Cc2ccccc2F)c1=O,inactive: -1.11%,
CCOc1ccc2nc(NC(=O)c3cccn(Cc4ccc(Cl)cc4)c3=O)sc2c1,inactive: -1.21%,
COc1ccc(-c2nc(CN3C(=O)CN=C(c4ccccc4)c4cc(Cl)ccc43)c(C)o2)cc1,inactive: -1.41%,
O=C(Nc1ccc(Cl)cc1C(=O)c1ccccc1)c1cc(Cl)cc(Cl)c1,inactive: -5.13%,

SMILES,"activity change, negative = inhibition",Potency
COc1ccc(OC)c(NC(=O)Cn2cc(C(=O)c3ccccc3)c3ccccc32)c1,inactive: -17.7%,
CSc1ccc(CN2CCN(C(=O)COc3ccc(C)cc3)CC2)cc1,inactive: 2.64%,
CCOc1ccc2nc(NC(=O)c3cccn(Cc4ccccc4)c3=O)sc2c1,inactive: -15.3%,
Cn1cc(/C=C/c2nc3ccccc3c(=O)n2-c2ccccc2)c2ccccc21,inactive: 14%,
O=C(Nc1ccc2c(c1)OCO2)c1cccn(Cc2cccc(F)c2)c1=O,inactive: 2.36%,
COc1ccc(N2CCN(C(=O)C3CCCN(S(=O)(=O)c4ccc5c(c4)CCCN5C(C)=O)C3)CC2)cc1 (centres undefined),,active: 7.36 µM
Nc1c(C(=O)Nc2ccc(Cl)cc2)sc2nc3c(cc12)N1CCC3CC1,inactive: -15.4%,
Cc1cccc(-n2c(/C=C/c3c(C)[nH]c4ccccc34)nc3ccccc3c2=O)c1,inactive: -9.64%,
Nc1c(C(=O)Nc2ccc(Br)cc2F)sc2nc3c(cc12)N1CCC3CC1,inactive: -1.59%,
COc1cc(C(c2c(O)c3ccccc3oc2=O)c2c(C)n(C)n(-c3ccccc3)c2=O)ccc1OCC(=O)O (centres undefined),inactive: -0.0215%,
O=C(Nc1ccc(Cl)cc1C(=O)c1ccccc1)c1ccccc1Br,inactive: 7.35%,
Cc1c(Cl)cccc1NC(=O)CN1C(=O)C(C)N=C(c2ccccc2)c2ccccc21 (centres undefined),inactive: 0.055%,
COc1ccccc1NC(=O)N(Cc1ccc2c(c1)OCO2)C1CCN(Cc2ccccc2)CC1,inactive: -17.9%,
O=c1c2ccccc2nc(/C=C/c2ccccc2)n1-c1ccccc1F,inactive: 3.26%,
Cc1nnc(NC(=O)c2cccn(Cc3cccc(Cl)c3)c2=O)s1,inactive: 2.83%,
COc1cc(C(c2c(O)c3ccccc3oc2=O)c2c(C)n(C)n(-c3ccccc3)c2=O)ccc1O (centres undefined),inactive: 0.533%,
O=C(Nc1ccc(Br)cc1C(=O)c1ccccc1)c1ccccc1,inactive: -0.367%,
O=S1(=O)N(Cc2ccccc2)CCCN1Cc1ccc(F)cc1Cl,inactive: 3.63%,
Cc1ccc(OCC(=O)Nc2ccc(Cl)cc2C(=O)c2ccccc2)cc1,inactive: -16%,
COC(=O)c1ccc(NC(=O)c2cccn(Cc3ccccc3C)c2=O)cc1,inactive: 0.889%,
COc1ccc(OCC(=O)N2CCN(Cc3cccc(OC)c3OC)CC2)cc1,inactive: 4.04%,
Cc1cc(C)cc(OCC(=O)Nc2ccc(Cl)cc2C(=O)c2ccccc2)c1,inactive: -7.92%,
Cc1cc(NC(=O)c2cccn(Cc3ccccc3)c2=O)no1,inactive: 0.0941%,
O=C(CN1C(=O)CN=C(c2ccccc2)c2ccccc21)Nc1cccc(C(F)(F)F)c1,inactive: -1.17%,
Cc1cccc2sc(NC(=O)c3cccn(Cc4ccccc4)c3=O)nc12,inactive: -3.4%,

SMILES,"activity change, negative = inhibition",Potency
Cc1cccc(C2CC(=O)Oc3c2c(=O)oc2ccccc32)c1 (centres undefined),inactive: 4.43%,
COc1ccc(CN2CCN(C(=O)COc3ccccc3)CC2)c(OC)c1,inactive: 0.7%,
CCN(CC)C(=O)c1ccc(NC(=O)CCn2nc(-c3ccc(Cl)cc3)c3ccccc3c2=O)cc1,inactive: -1.46%,
CCOc1ccc(CN(CCc2ccc3c(c2)OCO3)Cc2cccc(C)c2)cc1,inactive: 0.133%,
Cc1cc(OCC(=O)N2CCN(CCc3ccccn3)CC2)cc(C)c1Cl,inactive: -7.36%,
CCN(CC)C(=O)c1ccc(NC(=O)CCn2nc(-c3ccc(C)cc3)c3ccccc3c2=O)cc1,inactive: 4.08%,
Cc1cccc(Cn2cccc(C(=O)Nc3cc(C)on3)c2=O)c1,inactive: -9.09%,
COc1ccc(-c2nc(CN3C(=O)CN=C(c4ccccc4)c4ccccc43)c(C)o2)cc1,inactive: -15.4%,
CSc1ccc(CN2CCN(C(=O)COc3cccc(C)c3)CC2)cc1,inactive: -1.17%,
Cc1cccc(-n2c(/C=C/c3c[nH]c4ccccc34)nc3ccccc3c2=O)c1,inactive: -4.64%,
CC(C)c1ccc(OCC(=O)N2CCN(CCc3ccncc3)CC2)cc1,inactive: -0.415%,
COc1ccc(-n2c(/C=C\c3ccccc3F)nc3ccccc3c2=O)c(OC)c1,inactive: 8.55%,
Cc1cc(OCC(=O)N2CCN(CCc3ccncc3)CC2)ccc1Cl,inactive: 1.26%,
CSc1ccc(/C=C/c2nc3ccccc3c(=O)n2-c2cccc(Cl)c2C)cc1,inactive: 8.85%,
CCOc1ccc(CN(CCc2ccc3c(c2)OCO3)Cc2cc(OC)ccc2O)cc1,inactive: -1.28%,
CCc1cccc(NC(=O)CN2C(=O)CN=C(c3ccccc3F)c3cc(Cl)ccc32)c1,inactive: -11.6%,
COc1ccc(OC)c(C(c2c(O)c3ccccc3oc2=O)c2c(C)n(C)n(-c3ccccc3)c2=O)c1 (centres undefined),inactive: -0.733%,
O=C(Nc1ccccc1C(F)(F)F)c1cccn(Cc2ccccc2)c1=O,inactive: -1.34%,
O=C(COc1ccccc1[N+](=O)[O-])N1CCN(CCc2ccccn2)CC1,inactive: 1.14%,
Cc1ccccc1-n1c(/C=C/c2ccccc2F)nc2ccccc2c1=O,inactive: -10.2%,
N#Cc1cc2c(nc1SCC(=O)Nc1ccc(Cl)c(C(F)(F)F)c1)C1CCN2CC1,inactive: 8.9%,
COc1cccc(-n2c(/C=C/c3cccc(C)c3)nc3ccccc3c2=O)c1,inactive: -6.57%,
Cc1cccc(-n2c(CC3C(=O)Nc4ccc(C)cc43)nc3ccccc3c2=O)c1 (centres undefined),inactive: 3.72%,
Cc1cccc(Cn2cccc(C(=O)Nc3nc4ccccc4s3)c2=O)c1,inactive: -10.1%,
